We go through 24 compounds from PubChem BioAssay AID463173 (ICCB-Longwood Screening Facility, Harvard Medical School, 2010).

In all, about 52,000 compounds went through this assay and about 1,700 (3.3%) were called active. Rule as the data show it: active = survival mostly below about 52% (no sharp cut-off); inactive = mostly above about 56%. The list shows a part of the results.

The test system of this test is Wild type. Nature of the test: growth inhibition of S. aureus wild type versus tarO mutant, primary screen, teichoic acid synthesis inhibitors, RN4220, OD600 (AID 463173). The following applies: S. aureus RN4220 wild type/DeltatarO growth, OD600, 18 h, active compounds read low, screened at 18.75 µg/mL (by protocol).
Turning to `Cc1cc(C)c(C)c(OCC(=O)Nc2ccc(S(=O)(=O)Nc3nc(C)cc(C)n3)cc2)c1`, the survival was inactive: 76%.
`CCc1ccc(NC(=O)CC2C(=O)N(c3cccc(C)c3)C(=O)N2CCC(C)C)cc1` (centres undefined): the survival is inactive: 72%.
For the compound `CCOC(=O)C1CCCN(C(=O)C2CCN(S(=O)(=O)c3c(C)noc3/C=C/c3ccccc3F)CC2)C1` (centres undefined), the survival was inactive: 80%.
As for `O=C(CSC1=Nc2ccccc2N=C(c2ccc(F)cc2)C1)Nc1cccc(C(F)(F)F)c1`, the figure is inactive: 67%; as for `COc1ccc(CN(Cc2ccccc2)Cc2nnnn2C(C)(C)C)cc1`, inactive: 128%.
`COc1ccc(CC(=O)NCCc2sc3nc(-c4ccc(OC)cc4)nn3c2C)cc1`: the survival was inactive: 89%.
Consider `CCCN(CCC)CCCNC(=O)c1cn(CC)c2ccc(S(=O)(=O)N(C)C3CCCCC3)cc2c1=O`, for which the survival is inactive: 93%.
In the case of `CCc1ccc(OCc2cc(=O)n3c4c(sc3n2)CCCC4)cc1`, the survival is inactive: 65%.
Turning to `O=C(C1CCC1)N1CCCc2cc(S(=O)(=O)N3CCN(c4ccccc4)CC3)ccc21`, the survival is inactive: 71%.
As for `COc1cccc(N2CCN(C(=O)C3Cc4ccccc4N3C(C)=O)CC2)c1` (centres undefined), the figure is inactive: 81%; as for `CCC(=O)Nc1ccccc1-c1nc2ccccc2n(CC(=O)c2ccc(Cl)cc2)c1=O`, inactive: 64%.
Consider `CCOC(=O)N1CCc2c(sc(NCc3cccc(F)c3)c2C(=O)Nc2ccc(OC)cc2OC)C1`, for which the survival is inactive: 68%.
Then `CCNc1ncnc2c1nnn2C`, with inactive: 65%.
Take `CCOC(=O)c1c(C)[nH]c(CCC(=O)Nc2c(C)cccc2CC)c1C`: the survival is inactive: 73%.
Regarding `Cc1cccc(-c2nc3ccccc3n2Cc2ccccc2)c1`, the survival is active: 1%.
In the case of `CC(C)OC(=O)C(C(=O)C(F)(F)F)c1cc(NS(=O)(=O)c2ccc3c4c(cccc24)C(=O)N3)ccc1O` (centres undefined), the survival is inactive: 67%.
Regarding `O=C(/C=C/c1ccco1)Nc1cc(C(=O)O)cc(C(=O)O)c1`, the survival was inactive: 115%.
With `Cc1ccc(S(=O)(=O)c2nnn3c2nc(NC(C)C)c2sccc23)cc1`, the survival was inactive: 95%.
`COc1ccc2c(Sc3ccc(C)cc3)c(C(=O)NCc3ccc(F)cc3)[nH]c2c1`: the survival was inactive: 91%.
`O=C(Cn1cnc2ccccc2c1=O)N1CCCCCC1`: the survival is inactive: 104%.
Take `O=C(CSc1nnc(-c2ccncc2)n1Cc1ccco1)N(c1ccccc1)c1ccccc1`: the survival was inactive: 112%.
Consider `C=CCCC1(C)NNc2nc(=O)c(C)nn21` (centres undefined), for which the survival was inactive: 111%.
As for `COc1ccccc1NC(=O)C1=C(C)Nc2nc(CCCO)nn2C1c1cccc(O)c1` (centres undefined), the figure is inactive: 150%; as for `O=C(CCCn1c(=O)c2ccccc2n(Cc2cccc(Cl)c2)c1=O)NCCc1ccc(Cl)cc1`, inactive: 92%.
